{"source": "the supplement of paper PMC8728848", "binders": {"B1": {"name": "GS13686A-pdi-553-26-553 (Parabacteroides distasonis) (protein)", "chain": "NENPDKPTDDVNYNMNEPRLASTLRGGLIIEGNVEQRLKPLQIDFYSQMTVDGGGWGTKNYIQDDEWNNLVWEEYLKQIASINIVIRSLTEKDKDAYANTIAFARIWRVYVHTLAADKFGPMPFPAYEIVEANPPYKSLKDIYDEYFRELDAAINGFNDSAQPIFSDAGIDLIYKNDVSKWKRFANSLRLRLAVRLTEVDQEKCIAEANAAISSPAGLISDKADNAYMPPKADGSWGQDYNYTMFQITWSGPICMSKSVEKLVTNIGGVAWPQGVVNQTSGVAVSSVHPEKVDPRAPKIFQPGIENGDWKGLVYGPKAEEANTGIYQSKQCAELGFIIKDGYPYKSRPYDLFLSEEVHFLKAELYARGFIAGDAKSEYEAGVRASFATWGVTSEVDDYLTSTEKNEAGTSARYDDQQGAGNTALEKIITQKYIAGIPDLAQEGWNDKRRLNLPRLDVAVYRDQAVYNNNDKDILKSANFIKRMRYPTKESLINATEYEKGKSMLGGKGDIVSTPLWWDKNSNYCTSSK"}}, "experiment_in_all_cases": "glycan array binding signal (z-score within array); higher = stronger binding", "conditions_in_all_cases": "glycan notation: IUPAC condensed, linker removed", "key": {"[1]": {"molecular_target": "Neu5Ac(a2-6)Gal(b1-4)GlcNAc(b1-2)Man(a1-3)[Neu5Ac(a2-3)Gal(b1-4)GlcNAc(b1-2)Man(a1-6)]Man(b1-4)GlcNAc(b1-4)GlcNAc", "how_it_was_run": "(§1)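 The binding signal is a Z-score computed within each array and averaged over linkers. Arrays of the same protein sequence at different concentrations or buffers were also averaged together. Data originate from 3228 arrays in the Consortium for Functional Glycomics database, kept only where the protein sequence was available.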"}, "[2]": {"molecular_target": "Neu5Ac(a2-6)Gal(b1-4)GlcNAc(b1-2)Man(a1-3)[Neu5Ac(a2-6)Gal(b1-4)GlcNAc(b1-2)Man(a1-6)]Man(b1-4)GlcNAc(b1-4)GlcNAc", "how_it_was_run": "as §1"}, "[3]": {"molecular_target": "Neu5Ac(a2-6)Gal(b1-4)GlcNAc(b1-2)Man(a1-3)[Neu5Ac(a2-6)Gal(b1-4)GlcNAc(b1-2)Man(a1-6)]Man(b1-4)GlcNAc(b1-4)[Fuc(a1-6)]GlcNAc", "how_it_was_run": "as §1"}, "[4]": {"molecular_target": "Neu5Ac(a2-6)Gal(b1-4)GlcNAc(b1-2)Man(a1-6)Man(b1-4)GlcNAc(b1-4)GlcNAc", "how_it_was_run": "as §1"}, "[5]": {"molecular_target": "Neu5Ac(a2-6)Gal(b1-4)GlcNAc(b1-2)Man(a1-6)[Gal(b1-4)GlcNAc(b1-2)Man(a1-3)]Man(b1-4)GlcNAc(b1-4)GlcNAc", "how_it_was_run": "as §1"}, "[6]": {"molecular_target": "Neu5Ac(a2-6)Gal(b1-4)GlcNAc(b1-2)Man(a1-6)[GlcNAc(b1-2)Man(a1-3)]Man(b1-4)GlcNAc(b1-4)GlcNAc", "how_it_was_run": "as §1"}, "[7]": {"molecular_target": "Neu5Ac(a2-6)Gal(b1-4)GlcNAc(b1-2)Man(a1-6)[Man(a1-3)]Man(b1-4)GlcNAc(b1-4)GlcNAc", "how_it_was_run": "as §1"}, "[8]": {"molecular_target": "Neu5Ac(a2-6)Gal(b1-4)GlcNAc(b1-2)[Neu5Ac(a2-6)Gal(b1-4)GlcNAc(b1-4)]Man(a1-3)[GlcNAc(b1-4)][Neu5Ac(a2-6)Gal(b1-4)GlcNAc(b1-2)[Neu5Ac(a2-6)Gal(b1-4)GlcNAc(b1-6)]Man(a1-6)]Man(b1-4)GlcNAc(b1-4)GlcNAc", "how_it_was_run": "as §1"}, "[9]": {"molecular_target": "Neu5Ac(a2-6)Gal(b1-4)GlcNAc(b1-2)[Neu5Ac(a2-6)Gal(b1-4)GlcNAc(b1-4)]Man(a1-3)[GlcNAc(b1-4)][Neu5Ac(a2-6)Gal(b1-4)GlcNAc(b1-4)Man(a1-6)]Man(b1-4)GlcNAc(b1-4)GlcNAc", "how_it_was_run": "as §1"}, "[10]": {"molecular_target": "Neu5Ac(a2-6)Gal(b1-4)GlcNAc(b1-2)[Neu5Ac(a2-6)Gal(b1-4)GlcNAc(b1-6)]Man(a1-6)[Neu5Ac(a2-6)Gal(b1-4)GlcNAc(b1-2)Man(a1-3)][GlcNAc(b1-4)]Man(b1-4)GlcNAc(b1-4)GlcNAc", "how_it_was_run": "as §1"}, "[11]": {"molecular_target": "Neu5Ac(a2-6)Gal(b1-4)GlcNAc(b1-3)Gal(b1-3)GlcNAc", "how_it_was_run": "as §1"}, "[12]": {"molecular_target": "Neu5Ac(a2-6)Gal(b1-4)GlcNAc(b1-3)Gal(b1-4)GlcNAc", "how_it_was_run": "as §1"}, "[13]": {"molecular_target": "Neu5Ac(a2-6)Gal(b1-4)GlcNAc(b1-3)Gal(b1-4)GlcNAc(b1-2)Man(a1-3)[Neu5Ac(a2-6)Gal(b1-4)GlcNAc(b1-3)Gal(b1-4)GlcNAc(b1-2)Man(a1-6)]GalNAc", "how_it_was_run": "as §1"}, "[14]": {"molecular_target": "Neu5Ac(a2-6)Gal(b1-4)GlcNAc(b1-3)Gal(b1-4)GlcNAc(b1-3)Gal(b1-4)GlcNAc", "how_it_was_run": "as §1"}, "[15]": {"molecular_target": "Neu5Ac(a2-6)Gal(b1-4)GlcNAc(b1-3)Gal(b1-4)GlcNAc(b1-3)Gal(b1-4)GlcNAc(b1-2)Man(a1-3)[Neu5Ac(a2-6)Gal(b1-4)GlcNAc(b1-3)Gal(b1-4)GlcNAc(b1-3)Gal(b1-4)GlcNAc(b1-2)Man(a1-6)]GalNAc", "how_it_was_run": "as §1"}, "[16]": {"molecular_target": "Neu5Ac(a2-6)Gal(b1-4)GlcNAc(b1-3)Gal(b1-4)GlcNAc(b1-3)GalNAc", "how_it_was_run": "as §1"}, "[17]": {"molecular_target": "Neu5Ac(a2-6)Gal(b1-4)GlcNAc(b1-3)Gal(b1-4)GlcNAc(b1-3)[Neu5Ac(a2-6)Gal(b1-4)GlcNAc(b1-3)Gal(b1-4)GlcNAc(b1-6)]GalNAc", "how_it_was_run": "as §1"}, "[18]": {"molecular_target": "Neu5Ac(a2-6)Gal(b1-4)GlcNAc(b1-3)Gal(b1-4)GlcNAc(b1-6)[Gal(b1-3)]GalNAc", "how_it_was_run": "as §1"}, "[19]": {"molecular_target": "Neu5Ac(a2-6)Gal(b1-4)GlcNAc(b1-3)Gal(b1-4)[Fuc(a1-3)]GlcNAc(b1-3)Gal(b1-4)[Fuc(a1-3)]GlcNAc", "how_it_was_run": "as §1"}, "[20]": {"molecular_target": "Neu5Ac(a2-6)Gal(b1-4)GlcNAc(b1-3)GalNAc", "how_it_was_run": "as §1"}, "[21]": {"molecular_target": "Neu5Ac(a2-6)Gal(b1-4)GlcNAc(b1-3)[Neu5Ac(a2-6)Gal(b1-4)GlcNAc(b1-6)]GalNAc", "how_it_was_run": "as §1"}, "[22]": {"molecular_target": "Neu5Ac(a2-6)Gal(b1-4)GlcNAc(b1-6)GalNAc", "how_it_was_run": "as §1"}, "[23]": {"molecular_target": "Neu5Ac(a2-6)Gal(b1-4)GlcNAc(b1-6)[Gal(b1-3)GlcNAc(b1-3)]Gal(b1-4)Glc", "how_it_was_run": "as §1"}, "[24]": {"molecular_target": "Neu5Ac(a2-6)Gal(b1-4)GlcNAc(b1-6)[Gal(b1-3)]GalNAc", "how_it_was_run": "as §1"}, "[25]": {"molecular_target": "Neu5Ac(a2-6)Gal(b1-4)GlcNAc6S", "how_it_was_run": "as §1"}, "Neu5Ac(a2-6)GalNAc": {"molecular_target": "Neu5Ac(a2-6)GalNAc", "how_it_was_run": "as §1"}, "[26]": {"molecular_target": "Neu5Ac(a2-6)GalNAc(b1-4)GlcNAc", "how_it_was_run": "as §1"}, "[27]": {"molecular_target": "Neu5Ac(a2-6)GalNAc(b1-4)GlcNAc6S", "how_it_was_run": "as §1"}, "[28]": {"molecular_target": "Neu5Ac(a2-6)GlcNAc(b1-4)GlcNAc", "how_it_was_run": "as §1"}, "[29]": {"molecular_target": "Neu5Ac(a2-6)GlcNAc(b1-4)GlcNAc(b1-4)GlcNAc", "how_it_was_run": "as §1"}}, "note": "This is one part of the list.", "data": [{"binder": "B1", "values": [{"measurement": "glycan array binding signal (z-score)", "setting": "[1]", "value": -0.389}, {"measurement": "glycan array binding signal (z-score)", "setting": "[2]", "value": -0.23}, {"measurement": "glycan array binding signal (z-score)", "setting": "[3]", "value": 0.391}, {"measurement": "glycan array binding signal (z-score)", "setting": "[4]", "value": -0.085}, {"measurement": "glycan array binding signal (z-score)", "setting": "[5]", "value": 0.126}, {"measurement": "glycan array binding signal (z-score)", "setting": "[6]", "value": 0.032}, {"measurement": "glycan array binding signal (z-score)", "setting": "[7]", "value": -0.072}, {"measurement": "glycan array binding signal (z-score)", "setting": "[8]", "value": -0.216}, {"measurement": "glycan array binding signal (z-score)", "setting": "[9]", "value": -0.066}, {"measurement": "glycan array binding signal (z-score)", "setting": "[10]", "value": 0.625}, {"measurement": "glycan array binding signal (z-score)", "setting": "[11]", "value": -0.181}, {"measurement": "glycan array binding signal (z-score)", "setting": "[12]", "value": -0.315}, {"measurement": "glycan array binding signal (z-score)", "setting": "[13]", "value": -0.126}, {"measurement": "glycan array binding signal (z-score)", "setting": "[14]", "value": 0.058}, {"measurement": "glycan array binding signal (z-score)", "setting": "[15]", "value": -0.058}, {"measurement": "glycan array binding signal (z-score)", "setting": "[16]", "value": -0.222}, {"measurement": "glycan array binding signal (z-score)", "setting": "[17]", "value": -0.162}, {"measurement": "glycan array binding signal (z-score)", "setting": "[18]", "value": -0.234}, {"measurement": "glycan array binding signal (z-score)", "setting": "[19]", "value": -0.092}, {"measurement": "glycan array binding signal (z-score)", "setting": "[20]", "value": -0.218}, {"measurement": "glycan array binding signal (z-score)", "setting": "[21]", "value": 0.115}, {"measurement": "glycan array binding signal (z-score)", "setting": "[22]", "value": -0.164}, {"measurement": "glycan array binding signal (z-score)", "setting": "[23]", "value": -0.013}, {"measurement": "glycan array binding signal (z-score)", "setting": "[24]", "value": -0.227}, {"measurement": "glycan array binding signal (z-score)", "setting": "[25]", "value": -0.181}, {"measurement": "glycan array binding signal (z-score)", "setting": "Neu5Ac(a2-6)GalNAc", "value": -0.309}, {"measurement": "glycan array binding signal (z-score)", "setting": "[26]", "value": -0.419}, {"measurement": "glycan array binding signal (z-score)", "setting": "[27]", "value": 0.236}, {"measurement": "glycan array binding signal (z-score)", "setting": "[28]", "value": -0.236}, {"measurement": "glycan array binding signal (z-score)", "setting": "[29]", "value": -0.11}]}]}
